Consider 19 molecules from the supplement of paper PMC10369915.

The other results are listed elsewhere or left out. Rule as the data show it: active = 3.2 or more and inactive = the rest. Most of these values are background signal.

Among the targets are SHP2 C-SH2 domain E139D; SHP2 N-SH2 domain L43F; SHP2 N-SH2 domain T42A; SHP2 N-SH2 domain T52S.
Common to all, as to assay: enrichment score (SH2-bound / input frequency) (ratio); bacterial display of known human phosphotyrosine sites (pTyr-Var adds point mutants) read by sequencing; higher = stronger binding; tyrosines were phosphorylated by kinases first
Common to all, as to conditions: peptide library: pTyr-Var

Test [1] deals with SHP2 C-SH2 domain wild-type.
Test [2] deals with SHP2 N-SH2 domain wild-type.
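Also: displayed peptides selected on beads carrying the immobilized SH2 domain, with library peptides lacking any tyrosine serving as negative controls.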

B1: FGFR1_Y280_P283R (peptide)
chain: FMCKVYSDRQP
Consider B1, for which the enrichment score with SHP2 C-SH2 domain E139D is inactive: 0.659; in test [1], inactive: 0.794; with SHP2 N-SH2 domain L43F it was inactive: 0.698; with SHP2 N-SH2 domain T42A it was inactive: 0.728; in the test with SHP2 N-SH2 domain T52S it was inactive: 0.612; in test [2] it was inactive: 0.995.

B2: FH_Y110_N107T (peptide)
chain: EVTQDYGLDPK
In the case of B2, the enrichment score with SHP2 C-SH2 domain E139D was inactive: 0.405; in test [1], inactive: 0.377; with SHP2 N-SH2 domain L43F, inactive: 0.542; with SHP2 N-SH2 domain T42A, inactive: 0.416; in the test with SHP2 N-SH2 domain T52S, inactive: 0.358; in test [2], inactive: 0.68.

B3: FGFR1_Y280_C277Y_YF (peptide)
chain: FMFKVYSDPQP
As for B3, the enrichment score in the test with SHP2 C-SH2 domain E139D was inactive: 0.839; in test [1], inactive: 0.886; with SHP2 N-SH2 domain L43F, inactive: 0.865; in the test with SHP2 N-SH2 domain T42A it was inactive: 0.641; with SHP2 N-SH2 domain T52S, inactive: 0.62; in test [2], inactive: 1.01.

B4: FGFR4_Y237 (peptide)
chain: SIRYNYLLDVL
For the molecule B4, the enrichment score is inactive: 1.08 in the test with SHP2 C-SH2 domain E139D; inactive: 1.48 in test [1]; inactive: 1.17 with SHP2 N-SH2 domain L43F; inactive: 2.63 in the test with SHP2 N-SH2 domain T42A; inactive: 1.07 in the test with SHP2 N-SH2 domain T52S; inactive: 0.868 in test [2].

B5: FGFR4_Y390 (peptide)
chain: LLAGLYRGQAL
For the molecule B5, the enrichment score with SHP2 C-SH2 domain E139D was inactive: 1.81; in test [1], inactive: 1.41; with SHP2 N-SH2 domain L43F it was inactive: 1.64; with SHP2 N-SH2 domain T42A, inactive: 1.53; with SHP2 N-SH2 domain T52S it was inactive: 1.88; in test [2], inactive: 1.53.

B6: FGFR2_Y616_R612T (peptide)
chain: ATGMEYLASQK
In the case of B6, the enrichment score in the test with SHP2 C-SH2 domain E139D is inactive: 0.859; in test [1], inactive: 0.906; in the test with SHP2 N-SH2 domain L43F it was inactive: 0.665; in the test with SHP2 N-SH2 domain T42A it was inactive: 0.776; with SHP2 N-SH2 domain T52S it was inactive: 0.835; in test [2], inactive: 0.867.

B7: FGFR1_Y613 (peptide)
chain: ARGMEYLASKK
On to B7, for which the enrichment score with SHP2 C-SH2 domain E139D is inactive: 0.694; in test [1], inactive: 0.831; with SHP2 N-SH2 domain L43F, inactive: 0.603; in the test with SHP2 N-SH2 domain T42A, inactive: 0.502; with SHP2 N-SH2 domain T52S, inactive: 0.547; in test [2], inactive: 0.631.

B8: FGFR3_Y724_I726F (peptide)
chain: CTHDLYMFMRE
For B8, the enrichment score in the test with SHP2 C-SH2 domain E139D was inactive: 0.952; in test [1] it was inactive: 1.09; with SHP2 N-SH2 domain L43F, inactive: 0.845; with SHP2 N-SH2 domain T42A it was inactive: 0.807; with SHP2 N-SH2 domain T52S, inactive: 0.882; in test [2], inactive: 1.01.

B9: FGFR1_Y605_V607M (peptide)
chain: LVSCAYQMARG
Regarding B9, the enrichment score with SHP2 C-SH2 domain E139D was inactive: 0.828; in test [1], inactive: 0.862; in the test with SHP2 N-SH2 domain L43F it was inactive: 1.02; in the test with SHP2 N-SH2 domain T42A it was inactive: 0.881; with SHP2 N-SH2 domain T52S, inactive: 1.35; in test [2] it was inactive: 1.3.

B10: FGFR1_Y653_K656E (peptide)
chain: IHHIDYYKETT
For the molecule B10, the enrichment score in the test with SHP2 C-SH2 domain E139D is inactive: 1.3; in test [1], inactive: 1.08; with SHP2 N-SH2 domain L43F it was inactive: 1.45; with SHP2 N-SH2 domain T42A, inactive: 1.03; in the test with SHP2 N-SH2 domain T52S it was inactive: 1.43; in test [2], inactive: 1.28.

B11: FGG_Y300_R301H_YF (peptide)
chain: PEADKYHLTFA
On to B11, for which the enrichment score in the test with SHP2 C-SH2 domain E139D was inactive: 0.863; in test [1] it was inactive: 1.04; with SHP2 N-SH2 domain L43F it was inactive: 1.19; in the test with SHP2 N-SH2 domain T42A, inactive: 1.41; in the test with SHP2 N-SH2 domain T52S, inactive: 1.52; in test [2], inactive: 1.07.

B12: FGFR3_Y724 (peptide)
chain: CTHDLYMIMRE
Take B12: the enrichment score with SHP2 C-SH2 domain E139D is inactive: 1; in test [1] it was inactive: 1.08; with SHP2 N-SH2 domain L43F it was inactive: 0.949; with SHP2 N-SH2 domain T42A, inactive: 0.849; with SHP2 N-SH2 domain T52S, inactive: 1.02; in test [2], inactive: 1.

B13: FGFR3_Y648_YF (peptide)
chain: HNLDFYKKTTN
Turning to B13, the enrichment score is inactive: 0.621 with SHP2 C-SH2 domain E139D; inactive: 0.584 in test [1]; inactive: 0.79 with SHP2 N-SH2 domain L43F; inactive: 0.54 with SHP2 N-SH2 domain T42A; inactive: 0.437 with SHP2 N-SH2 domain T52S; inactive: 0.931 in test [2].

B14: FGFR4_Y237_S232I_YF (peptide)
chain: IIRFNYLLDVL
Regarding B14, the enrichment score is active: 4.73 with SHP2 C-SH2 domain E139D; active: 3.53 in test [1]; active: 4.06 with SHP2 N-SH2 domain L43F; active: 4.06 with SHP2 N-SH2 domain T42A; active: 3.95 in the test with SHP2 N-SH2 domain T52S; active: 3.71 in test [2].

B15: FGFR3_Y648_K650E (peptide)
chain: HNLDYYKETTN
Consider B15, for which the enrichment score with SHP2 C-SH2 domain E139D was inactive: 1.08; in test [1] it was inactive: 2.26; with SHP2 N-SH2 domain L43F, inactive: 0.791; with SHP2 N-SH2 domain T42A, inactive: 0.661; in the test with SHP2 N-SH2 domain T52S it was inactive: 0.866; in test [2], inactive: 1.06.

B16: FGG_Y300_T303P (peptide)
chain: PEADKYRLPYA
In the case of B16, the enrichment score is inactive: 0.475 with SHP2 C-SH2 domain E139D; inactive: 0.773 in test [1]; inactive: 0.512 with SHP2 N-SH2 domain L43F; inactive: 0.581 with SHP2 N-SH2 domain T42A; inactive: 0.543 with SHP2 N-SH2 domain T52S; inactive: 0.785 in test [2].

B17: FGFR1_Y766_D768Y (peptide)
chain: TSNQEYLYLSM
As for B17, the enrichment score was inactive: 0.715 with SHP2 C-SH2 domain E139D; inactive: 0.708 in test [1]; inactive: 0.718 in the test with SHP2 N-SH2 domain L43F; inactive: 0.685 with SHP2 N-SH2 domain T42A; inactive: 0.569 in the test with SHP2 N-SH2 domain T52S; inactive: 0.856 in test [2].

B18: FGFR3_Y647_K650M (peptide)
chain: VHNLDYYKMTT
Consider B18, for which the enrichment score with SHP2 C-SH2 domain E139D was inactive: 0.96; in test [1] it was inactive: 0.994; with SHP2 N-SH2 domain L43F it was inactive: 0.896; in the test with SHP2 N-SH2 domain T42A it was inactive: 0.679; with SHP2 N-SH2 domain T52S, inactive: 0.866; in test [2] it was inactive: 1.08.

B19: FGFR4_Y237_S232I (peptide)
chain: IIRYNYLLDVL
Consider B19, for which the enrichment score was inactive: 3 in the test with SHP2 C-SH2 domain E139D; inactive: 2.35 in test [1]; inactive: 2.77 with SHP2 N-SH2 domain L43F; active: 4.62 with SHP2 N-SH2 domain T42A; inactive: 2.62 with SHP2 N-SH2 domain T52S; inactive: 2.34 in test [2].
